Here are results for 76 variants from a collection of fitness landscapes (doi:10.1016/j.celrep.2020.107928).

B1: Caulobacter ParB omega fusion; a variant is named by its letters at X, in order, B8GW30 (parent)
chain: MESVVVGEPGMSEGRRGLGRGLSALLGEVDAAPAQAPGEQLGGSREAPIEILQRNPDQPRRTFREEDLEDLSNSIREKGVLQPILVRPSPDTAGEYQIVAGERAWRAAQRAGLKTVPIMVRELDDLAVLEIGIIENVQRADLNVLEEALSYKVLMEKFERTQENIAQTIGKSXSHVANXMRLLXLPDEVQSYLVSGELTAXHARAIAAAADPVALAKQIIEGGLSVRETEALARKAPNLSAGKSKGGRPPRVKDTDTQALESDLSSVLGLDVSIDHRGSTGTLTITYATLEQLDDLCNRLTRGI

The full ranking holds about 81,000 sequences; the median of “one-hybrid fitness for binding NBS DNA” is about -0.1, and the highest 2% start at about 0.36. The list shows a part of the results. Some results are limits rather than exact numbers.

The assay covers variants of B1. Nature of the assay: one-hybrid fitness for binding NBS DNA (the Noc-binding site; scaled: cognate 1, non-cognate 0); higher = stronger binding. As to conditions: with NBS DNA site. In outline: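 Pre- and post-selection plasmids were Illumina-sequenced, three replicate libraries were pooled, and any variant with under 10 reads was removed. The libraries were Caulobacter ParB with four specificity codons randomised, selected in E. coli USO through a HIS3 reporter whose site is 19 bp from the promoter. Cells grew 48 hours at 37°C on M9 without histidine, with 0.1 mM IPTG and 5 mM 3-AT. Fitness is the log change in variant-to-wild-type read ratio, rescaled against cognate and non-cognate.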
SYVF: the “one-hybrid fitness for binding NBS DNA” value was ≤ 0.2.

Turning to RWIT, the “one-hybrid fitness for binding NBS DNA” value was ≤ 0.2.

Consider LPGS, for which the “one-hybrid fitness for binding NBS DNA” value is ≤ 0.2.

With YRYC, the “one-hybrid fitness for binding NBS DNA” value is ≤ 0.2.

Take FSNT: the “one-hybrid fitness for binding NBS DNA” value is ≤ 0.2.

Regarding PFRL, the “one-hybrid fitness for binding NBS DNA” value is ≤ 0.2.

For RWKV, the “one-hybrid fitness for binding NBS DNA” value is ≤ 0.2.

Turning to TSAH, the “one-hybrid fitness for binding NBS DNA” value is ≤ 0.2.

In the case of NDFG, the “one-hybrid fitness for binding NBS DNA” value was ≤ 0.2.

Consider QCKR, for which the “one-hybrid fitness for binding NBS DNA” value came to 1.08.

Take WPNS: the “one-hybrid fitness for binding NBS DNA” value was ≤ 0.2.

Consider SMLV, for which the “one-hybrid fitness for binding NBS DNA” value was ≤ 0.2.

As for LPPQ, the “one-hybrid fitness for binding NBS DNA” value was ≤ 0.2.

Turning to MEDL, the “one-hybrid fitness for binding NBS DNA” value is ≤ 0.2.

As to HKCY, the “one-hybrid fitness for binding NBS DNA” value was ≤ 0.2.

Turning to SNAP, the “one-hybrid fitness for binding NBS DNA” value was ≤ 0.2.

With IPFS, the “one-hybrid fitness for binding NBS DNA” value is ≤ 0.2.

For the variant MRGS, the “one-hybrid fitness for binding NBS DNA” value is ≤ 0.2.

In the case of AKSH, the “one-hybrid fitness for binding NBS DNA” value was ≤ 0.2.

Consider FPSM, for which the “one-hybrid fitness for binding NBS DNA” value was ≤ 0.2.

Consider DMAY, for which the “one-hybrid fitness for binding NBS DNA” value is ≤ 0.2.

Take QHDN: the “one-hybrid fitness for binding NBS DNA” value was ≤ 0.2.

As for WEMC, the “one-hybrid fitness for binding NBS DNA” value is ≤ 0.2.

For the variant KMTA, the “one-hybrid fitness for binding NBS DNA” value is ≤ 0.2.

Take YIMT: the “one-hybrid fitness for binding NBS DNA” value was ≤ 0.2.

As for MLRA, the “one-hybrid fitness for binding NBS DNA” value was ≤ 0.2.

In the case of CLIC, the “one-hybrid fitness for binding NBS DNA” value was ≤ 0.2.

Consider FCAR, for which the “one-hybrid fitness for binding NBS DNA” value is ≤ 0.2.

For SKWT, the “one-hybrid fitness for binding NBS DNA” value was ≤ 0.2.

For the variant KVVI, the “one-hybrid fitness for binding NBS DNA” value is ≤ 0.2.

Turning to GKGT, the “one-hybrid fitness for binding NBS DNA” value was ≤ 0.2.

As to TGKC, the “one-hybrid fitness for binding NBS DNA” value was ≤ 0.2.

On to DDSA, for which the “one-hybrid fitness for binding NBS DNA” value was ≤ 0.2.

Consider PSWC, for which the “one-hybrid fitness for binding NBS DNA” value was ≤ 0.2.

Regarding ELSY, the “one-hybrid fitness for binding NBS DNA” value is ≤ 0.2.

As for QARD, the “one-hybrid fitness for binding NBS DNA” value was found to be 0.23.

Take REGL: the “one-hybrid fitness for binding NBS DNA” value was ≤ 0.2.

In the case of KHGR, the “one-hybrid fitness for binding NBS DNA” value is ≤ 0.2.

Consider TDQN, for which the “one-hybrid fitness for binding NBS DNA” value was ≤ 0.2.

Regarding WQLC, the “one-hybrid fitness for binding NBS DNA” value is ≤ 0.2.

As for VSAN, the “one-hybrid fitness for binding NBS DNA” value is ≤ 0.2.

With CSLL, the “one-hybrid fitness for binding NBS DNA” value was ≤ 0.2.

Consider DDPR, for which the “one-hybrid fitness for binding NBS DNA” value was ≤ 0.2.

With LSVV, the “one-hybrid fitness for binding NBS DNA” value is ≤ 0.2.

Turning to YLHD, the “one-hybrid fitness for binding NBS DNA” value was ≤ 0.2.

As for EKFT, the “one-hybrid fitness for binding NBS DNA” value was ≤ 0.2.

Regarding SIFD, the “one-hybrid fitness for binding NBS DNA” value was ≤ 0.2.

With PCRS, the “one-hybrid fitness for binding NBS DNA” value is ≤ 0.2.

Take HPMS: the “one-hybrid fitness for binding NBS DNA” value was ≤ 0.2.

With QASQ, the “one-hybrid fitness for binding NBS DNA” value was ≤ 0.2.

Turning to VTIM, the “one-hybrid fitness for binding NBS DNA” value was ≤ 0.2.

Take FRDG: the “one-hybrid fitness for binding NBS DNA” value was ≤ 0.2.

For the variant SMLK, the “one-hybrid fitness for binding NBS DNA” value is ≤ 0.2.

For the variant HTVC, the “one-hybrid fitness for binding NBS DNA” value was ≤ 0.2.

On to ASGE, for which the “one-hybrid fitness for binding NBS DNA” value was ≤ 0.2.

With PMER, the “one-hybrid fitness for binding NBS DNA” value was ≤ 0.2.

For the variant CKGS, the “one-hybrid fitness for binding NBS DNA” value is ≤ 0.2.

Take DALD: the “one-hybrid fitness for binding NBS DNA” value was ≤ 0.2.

For the variant PHRR, the “one-hybrid fitness for binding NBS DNA” value is ≤ 0.2.

Consider HATS, for which the “one-hybrid fitness for binding NBS DNA” value was ≤ 0.2.

For YITY, the “one-hybrid fitness for binding NBS DNA” value was ≤ 0.2.

Consider KDCL, for which the “one-hybrid fitness for binding NBS DNA” value is ≤ 0.2.

As to DTKM, the “one-hybrid fitness for binding NBS DNA” value is ≤ 0.2.

For KTPI, the “one-hybrid fitness for binding NBS DNA” value was ≤ 0.2.

With DLAW, the “one-hybrid fitness for binding NBS DNA” value was ≤ 0.2.

Consider WETT, for which the “one-hybrid fitness for binding NBS DNA” value is ≤ 0.2.

In the case of DNTF, the “one-hybrid fitness for binding NBS DNA” value is ≤ 0.2.

With SMGN, the “one-hybrid fitness for binding NBS DNA” value is ≤ 0.2.

For YPTD, the “one-hybrid fitness for binding NBS DNA” value was ≤ 0.2.

Regarding GADI, the “one-hybrid fitness for binding NBS DNA” value was ≤ 0.2.

For DTAS, the “one-hybrid fitness for binding NBS DNA” value is ≤ 0.2.

For the variant HLSC, the “one-hybrid fitness for binding NBS DNA” value is ≤ 0.2.

Regarding ADFR, the “one-hybrid fitness for binding NBS DNA” value was ≤ 0.2.

As for RRHY, the “one-hybrid fitness for binding NBS DNA” value stood at 0.452.

On to NAIG, for which the “one-hybrid fitness for binding NBS DNA” value is ≤ 0.2.

In the case of MVHC, the “one-hybrid fitness for binding NBS DNA” value was ≤ 0.2.
